This note sets out measurements from paper PMC4303303.

One assay concerns the target GST-hnRNP K (UniProt P61978). Put plainly: pull-down; purified GST, GST-SUMO2 or GST-hnRNP K on glutathione magnetic beads as baits; recombinant FLAG-SETDB1 or Ubc9 as prey; 50 mM Tris pH 8.0, 100 mM NaCl, 1.5 h at 4°C; both purified.
The target in assay [1] is endogenous hnRNP K (293T cells) (human (endogenous in 293T)) (UniProt P61978). Briefly: co-IP; IP of endogenous hnRNP K from 293T whole-cell extracts prepared with 20 mM NEM; IgG as control IP.
Assay [2] has as its target KAP1 (mouse (endogenous in TT2 mESCs)) (UniProt Q62318). Put plainly: co-sedimentation; linear 5–50% sucrose gradient ultracentrifugation of mESC nuclear extract prepared with NEM; 27,500 rpm, 4°C, 18.5 h; fractions by western blot. On the technique in general: In western blotting, separated proteins are transferred to a membrane and probed.
The target is the same in assay [3]. Briefly: co-IP; endogenous proteins from mESC nuclear extract with 10 mM NEM (SENP inhibitor); IP with anti-SETDB1, anti-KAP1 or anti-hnRNP K overnight at 4°C; also with or without 50 U/ml DNase I and 50 μg/ml RNase A; western blot.
For assay [4], the target named is full-length wt GST-KAP1, unmodified (UniProt Q13263). Put plainly: pull-down; SUMOylated or unmodified GST-tagged baits from in vitro SUMOylation reactions on glutathione magnetic beads; purified recombinant 6X-His-tagged hnRNP K as prey; washes with 300 mM NaCl; both purified.
Assay [5] concerns the target T1, GST-KAP1^PxVxL (residues 379–524) (UniProt Q13263).
T1 sequence: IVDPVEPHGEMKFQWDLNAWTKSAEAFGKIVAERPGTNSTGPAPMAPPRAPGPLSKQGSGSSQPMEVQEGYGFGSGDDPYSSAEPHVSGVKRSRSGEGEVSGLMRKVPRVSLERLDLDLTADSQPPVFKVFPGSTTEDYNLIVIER
Put plainly: condition: 0.5–5 μg recombinant prey proteins in 150 μl; pull-down; unmodified GST-tagged wt KAP1, KAP1^PxVxL, KAP1^PB or GST alone as baits; purified 6X-His-tagged hnRNP K as prey; BSA at 1 mg/ml in the binding reaction; washes with 300 mM NaCl; both purified.

Assay [6] addresses T2, GST-KAP1^PB (residues 624–811) (UniProt Q13263).
T2 sequence: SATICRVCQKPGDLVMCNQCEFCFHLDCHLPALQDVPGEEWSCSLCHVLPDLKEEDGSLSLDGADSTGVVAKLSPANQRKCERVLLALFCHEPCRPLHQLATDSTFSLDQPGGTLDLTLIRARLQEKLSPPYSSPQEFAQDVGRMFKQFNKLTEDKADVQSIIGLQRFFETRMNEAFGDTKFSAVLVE
The assay is described as above.

For assay [7], the target named is full-length wt GST-KAP1, unmodified (UniProt Q13263). Put plainly: pull-down; unmodified GST-tagged wt KAP1, KAP1^PxVxL, KAP1^PB or GST alone as baits; purified 6X-His-tagged hnRNP K as prey; BSA at 1 mg/ml in the binding reaction; washes with 300 mM NaCl; both purified.

Results are given in words; binding and its absence hold for the method and conditions named. For some assays here: Binding seen in cells or lysates may run through a third protein. Some entries that bind do so weakly or less than the wild type. For some assays here: Where a sequence is shown, tags or fusion partners need not be part of it.

Regarding “Ubc9 (from UniProt P63279 1-158) (enzyme)”, the binding result in the assay with GST-hnRNP K is “binds”.

Regarding “endogenous KAP1 (293T cells) (from UniProt Q13263 1-835)”, the binding entry in assay [1] is “binds”.

On to “heterogeneous nuclear ribonucleoprotein K (hnRNP K) (from UniProt P61979 1-463)”, for which the binding entry in assay [2] and in assay [3] was “binds” throughout.

With “purified recombinant 6X-His-tagged hnRNP K (from UniProt P61978 1-463)”, the binding result in assay [4] is “binds”; in assay [5], “no binding”; in assay [6] it was “no binding”; in assay [7], “binds”.
